Here are results for 88 molecules from publication PMC4336329 (PLoS ONE, 2015).

SMILES strings stand for the structures. Among all 310,000 compounds or so, about 14,000 (4.5%) showed an effect of 50% or more. Effects have a minus sign here. The list shows a part of the results.
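Note: peak tail current of the secondary pulse compared with the same well before compound.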

Sequence of human ether-à-go-go-related gene (hERG) potassium channel (Q12809 whole entry, looked up): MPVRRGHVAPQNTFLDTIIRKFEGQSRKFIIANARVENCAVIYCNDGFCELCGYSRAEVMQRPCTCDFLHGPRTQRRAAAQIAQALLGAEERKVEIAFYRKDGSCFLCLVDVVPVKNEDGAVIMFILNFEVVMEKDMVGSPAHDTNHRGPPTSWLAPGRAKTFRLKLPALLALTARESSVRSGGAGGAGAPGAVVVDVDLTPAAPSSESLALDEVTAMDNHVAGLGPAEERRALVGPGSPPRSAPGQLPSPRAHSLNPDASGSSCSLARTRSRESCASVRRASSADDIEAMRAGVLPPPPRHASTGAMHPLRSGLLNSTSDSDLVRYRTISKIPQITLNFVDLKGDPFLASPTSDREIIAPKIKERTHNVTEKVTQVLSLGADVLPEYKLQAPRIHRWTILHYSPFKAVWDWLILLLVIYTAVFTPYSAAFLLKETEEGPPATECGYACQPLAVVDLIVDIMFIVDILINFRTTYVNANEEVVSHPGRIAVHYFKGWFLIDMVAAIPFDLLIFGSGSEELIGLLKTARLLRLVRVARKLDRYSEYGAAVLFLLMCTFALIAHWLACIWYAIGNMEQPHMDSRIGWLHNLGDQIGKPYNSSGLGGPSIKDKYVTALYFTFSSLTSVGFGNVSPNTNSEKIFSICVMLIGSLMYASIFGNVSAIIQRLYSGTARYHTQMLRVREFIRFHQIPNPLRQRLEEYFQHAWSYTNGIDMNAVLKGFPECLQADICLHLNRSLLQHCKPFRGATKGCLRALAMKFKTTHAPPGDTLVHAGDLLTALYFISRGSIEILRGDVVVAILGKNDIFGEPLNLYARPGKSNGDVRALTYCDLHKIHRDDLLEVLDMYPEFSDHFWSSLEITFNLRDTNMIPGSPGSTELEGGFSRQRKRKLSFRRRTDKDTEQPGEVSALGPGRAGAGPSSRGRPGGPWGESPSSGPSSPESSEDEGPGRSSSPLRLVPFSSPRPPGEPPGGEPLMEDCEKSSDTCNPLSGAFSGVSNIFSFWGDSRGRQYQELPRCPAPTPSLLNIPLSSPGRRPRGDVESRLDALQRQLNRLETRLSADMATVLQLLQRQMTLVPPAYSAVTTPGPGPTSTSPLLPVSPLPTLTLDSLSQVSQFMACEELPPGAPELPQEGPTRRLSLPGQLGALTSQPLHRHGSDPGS

This test concerns the target human ether-à-go-go-related gene (hERG) potassium channel (human, UniProt Q12809). As to the kind of experiment: primary screen, population patch clamp on CHO cells stably expressing hERG.
Consider `CCCn1c(SCC(=O)Nc2cccc(C)n2)nc2c1c(=O)n(C)c(=O)n2C`, for which the “hERG current change (%, negative = inhibition) at 10uM” value was -40.9%.

Regarding `CC(OC(=O)c1ccc2c(=O)n3c(nc2c1)CCCCC3)C(=O)Nc1ccc(Cl)cn1` (stereo not shown), the “hERG current change (%, negative = inhibition) at 10uM” value is -9.54%. Under `COC(=O)c1sc(NC(=O)CSc2nc3cccnc3n2C)nc1C` stands -4%; under `O=S(=O)(c1ccc(F)cc1)N1CCn2c(nc3ccccc32)C1`, 12.3%; under `Cc1nc(Oc2ccccc2)c2ccsc2n1`, -8.85%. For `CN1CCC(N(C)C(=O)Cc2ccccc2[N+](=O)[O-])CC1` the value was 10.5%. Under `O=C(CCSCCc1ccccn1)Nc1cccc([N+](=O)[O-])c1` stands -31.3%. Consider `O=C(/C=C/c1ccc(Cl)c(C(F)(F)F)c1)N1CCN(c2ccccn2)CC1`, for which the “hERG current change (%, negative = inhibition) at 10uM” value is given as -16.5%. In the case of `Cc1[nH]nc(-c2ccc(OCc3cnn(-c4ccccc4)c3)cc2O)c1Oc1ccc(F)cc1`, the “hERG current change (%, negative = inhibition) at 10uM” value stood at 22.6%.

Take `COC(=O)c1cc(NC(=O)c2cc(C(C)(C)C)nn2Cc2ccc(F)cc2)ccc1N1CCOCC1`: the “hERG current change (%, negative = inhibition) at 10uM” value is given as -3.46%. Turning to `Cc1nc2ccc(N3C(=O)CCC3=O)cc2[nH]1`, the “hERG current change (%, negative = inhibition) at 10uM” value is recorded as 12.7%. Consider `O=C(CN1CCC2(CC1)OCCO2)c1c[nH]c2ccccc12`, for which the “hERG current change (%, negative = inhibition) at 10uM” value was found to be 3.65%. Under `Cc1cc(NC(=O)C(C)SCC(=O)Nc2ccccc2N2CCCC2)no1` (stereo not shown) stands 15.1%; under `Cc1nc(COC(=O)c2c(C)nn(-c3ccccc3)c2C)cs1`, -2.05%. Under `COc1ccc(CCNC(=O)c2cc3c(=O)n(C)c4ccccc4c3n2C)cc1OC` stands -7.82%; under `Clc1ccc(OCc2nnc(-c3ccccc3Br)o2)cc1`, 2.44%; under `O=C(Nc1cccc(O)c1)c1cc(-c2ccco2)on1`, 15.7%.

Take `COc1cccc(CNC(=O)Cn2c(=O)oc3ccccc32)c1OC`: the “hERG current change (%, negative = inhibition) at 10uM” value turned out to be 5.28%.

With `Cn1c(=O)c2c(SCc3cccc(C(F)(F)F)c3)nc(-c3ccco3)nc2n(C)c1=O`, the “hERG current change (%, negative = inhibition) at 10uM” value was -3.88%. Under `CCOC(=O)c1c(NC(=O)CSc2nc3cc(Cl)ccc3c(=O)n2Cc2ccco2)sc(C(=O)N(C)C)c1C` stands 0.665%; under `CCc1ccc2nc(Nc3nc(COC)cc(=O)[nH]3)nc(C)c2c1`, -73.3%. Consider `COn1c(=O)c(-c2cccs2)[n+]([O-])c2ccccc21`, for which the “hERG current change (%, negative = inhibition) at 10uM” value was -5.83%.

In the case of `Cc1ccc(NCCc2ccc(C)nc2)cc1`, the “hERG current change (%, negative = inhibition) at 10uM” value came to 7.27%. Take `CCc1ccc(NC(=O)/C(C#N)=C\c2ccc(OC)c(C(=O)O)c2)cc1`: the “hERG current change (%, negative = inhibition) at 10uM” value is recorded as 19.9%. For `Cc1cc(C(=O)Nc2ccc(S(=O)(=O)Nc3onc(C)c3C)cc2)cs1` the value was 12.6%; for `Cn1c(SCC(=O)c2ccc(F)cc2)nc2cccnc21`, -0.414%.

Regarding `COc1ccccc1C(=O)NCC(=O)N1CC=C(c2ccccc2)CC1`, the “hERG current change (%, negative = inhibition) at 10uM” value was found to be 6.76%. `O=C(NCCCN1CCOCC1)c1cc(-c2ccc(O)cc2)on1`: the “hERG current change (%, negative = inhibition) at 10uM” value is reported as -4.4%. On to `Cn1nc(-c2ccc(C(=O)NC3CCCCC3)cc2)c2ccccc2c1=O`, for which the “hERG current change (%, negative = inhibition) at 10uM” value is listed as -52.4%. With `CN1CCCN(C(=O)/C=C/c2ccc(Cl)cc2Cl)CC1.Cl`, the “hERG current change (%, negative = inhibition) at 10uM” value was -67%. On to `CC(C)Sc1nnc(-c2c[nH]c3ccccc23)n1C`, for which the “hERG current change (%, negative = inhibition) at 10uM” value stood at 1.3%. For the molecule `CCCNC(=O)OC[C@H]1O[C@H](CCO/N=C(\C)CCN2CCc3nc(-c4ccccc4)c(-c4ccccc4)cc3C2)C=C[C@@H]1Oc1ccc(OC)cc1`, the “hERG current change (%, negative = inhibition) at 10uM” value is listed as -1.61%. For `Cc1cc(C)n(/N=C/c2ccccc2O)c(=O)c1` the value was 6.75%. Under `CC1CCc2sc(C(=O)OCC(=O)NC(C)C)cc2C1` (stereo not shown) stands 2.94%; under `Cc1cccc(NC(=S)N(CCN(C)C)C(C)c2ccco2)c1` (stereo not shown), -32.6%.

For the molecule `O=C(COc1ccc(S(=O)(=O)N2CCCCC2)cc1Cl)N1CCCC1`, the “hERG current change (%, negative = inhibition) at 10uM” value is -2.1%.

Regarding `COc1cc(/C=C/C(=O)OC(C)C(=O)Nc2c(C)n(C)n(-c3ccccc3)c2=O)ccc1OCC#N` (stereo not shown), the “hERG current change (%, negative = inhibition) at 10uM” value is 20.1%. `O=C1NC2(CCN(Cc3ccccc3)CC2)Oc2ccccc21`: the “hERG current change (%, negative = inhibition) at 10uM” value is 4.57%. For `Cc1nccc(-c2cccc(NC(=O)c3ccccc3Cl)c2)n1` the value was 6.06%; for `Cl.O=C(O)c1cccc(Nc2ncnc3c2cnn3-c2ccccc2)c1`, 15.1%.

Regarding `COc1ccc(NC(=O)CSc2nnc(C)c(=O)n2N)cc1`, the “hERG current change (%, negative = inhibition) at 10uM” value was determined as 3.36%. Regarding `COc1ccc(NC(=O)COC(=O)c2cc(SC)ccc2Cl)c(OC)c1`, the “hERG current change (%, negative = inhibition) at 10uM” value amounted to 19%. For `CC(C)OC(=O)C1=C2SCC(=O)N2C(N)=C(C#N)C1` the value was 12.5%; for `COc1ccccc1NC(=O)C(=O)NCCC1CCCCN1S(=O)(=O)c1ccccc1` (stereo not shown), 19.7%. For `COc1ccccc1CNC(=O)C(NS(=O)(=O)c1ccc2c(c1)OCCO2)C(C)C` (stereo not shown) the value was 2.23%. In the case of `Cc1ccc(-n2nc(C)c3c(-c4cccs4)c(C#N)c(N)nc32)cc1`, the “hERG current change (%, negative = inhibition) at 10uM” value is recorded as 7.34%. On to `Cn1c(-c2ccsc2)c(-c2cccs2)c2cc(-c3ccc4[nH]ccc4c3)ccc21`, for which the “hERG current change (%, negative = inhibition) at 10uM” value stood at 4.63%.

Turning to `Cc1ccc(NC(=O)c2ccc3nc[nH]c3c2)nc1`, the “hERG current change (%, negative = inhibition) at 10uM” value stood at 18.4%. In the case of `S=c1[nH]nc(COc2ccc(Cl)cc2)o1`, the “hERG current change (%, negative = inhibition) at 10uM” value amounted to 31.8%.

As to `Cl.Fc1cccc(C2NCc3ccccc3-n3cccc32)c1` (stereo not shown), the “hERG current change (%, negative = inhibition) at 10uM” value was -9.2%. With `COc1ccc2cc(C(c3nnnn3C(C)(C)C)N3CCc4ccccc4C3)c(=O)[nH]c2c1` (stereo not shown), the “hERG current change (%, negative = inhibition) at 10uM” value was -24.1%.

On to `CC(=Nc1ccccc1N)c1c(O)n(C)c(=O)n(C)c1=O`, for which the “hERG current change (%, negative = inhibition) at 10uM” value is listed as 21%. For `O=c1c2c(-c3ccc([N+](=O)[O-])cc3)ccnc2[nH]n1-c1ccccc1` the value was 19.9%; for `Clc1ccc(-c2nnc3sc(-c4ccc(Br)o4)nn23)cc1`, 12.4%. Under `CC(Cc1ccccc1)N1Cc2ccccc2C1` (stereo not shown) stands -15.8%. In the case of `CN(c1ccccc1)S(=O)(=O)c1cccc(NC(=O)Cc2ccc(Cl)cc2)c1`, the “hERG current change (%, negative = inhibition) at 10uM” value is recorded as 9.43%. For `CCOP(=O)(OCC)/C(C#N)=C/c1ccc(Br)cc1` the value was -13.5%; for `CC(C)Cn1c(CN2CCN(C(=O)c3ccco3)CC2)nc2c1c(=O)n(C)c(=O)n2C`, -12.2%; for `O=C(N/N=C\c1ccc(O)c([N+](=O)[O-])c1)c1ccccc1-n1cccc1`, 8.44%.

With `CCOC(=O)C1=C(C)N(c2ccccc2)C(=O)C1CC(=O)O` (stereo not shown), the “hERG current change (%, negative = inhibition) at 10uM” value came out at 7.68%. On to `CCN(CC)c1nc2nonc2nc1N(CC)CC`, for which the “hERG current change (%, negative = inhibition) at 10uM” value was -2.82%. Under `Cc1ccc(C(=O)c2coc3cc([N+](=O)[O-])c(O)c([N+](=O)[O-])c23)cc1` stands 18.4%; under `O=C(/C=C/c1ccccc1)N1CCC[C@H]1CO`, 6.12%; under `COc1ccc(N(CC(=O)N2CCc3ccccc32)S(=O)(=O)c2c(C)n[nH]c2C)cc1`, -18.6%. Under `COc1ccc(-c2cc(C(=O)O)c(C)o2)cc1OC` stands 0.595%. For `CN(CC(=O)Nc1cccc(S(=O)(=O)N2CCOCC2)c1)CC(=O)Nc1ccc(Cl)c(C(F)(F)F)c1` the value was -13.6%. For the molecule `C=CCNc1nc(-c2ccccn2)nnc1-c1ccccc1`, the “hERG current change (%, negative = inhibition) at 10uM” value is on record as -3.49%. Under `CC(=O)Nc1ccc(NC(=O)CSCCc2ccccn2)cc1` stands 14.4%; under `Cc1c(N(C)C(=O)C2CCCN2S(=O)(=O)c2ccccc2)c(=O)n(-c2ccccc2)n1C` (stereo not shown), 14.2%; under `Cc1cc(C)n(-c2ccc(NC(=O)C3CCCCN3C(=O)c3occc3C)cc2)n1` (stereo not shown), -4.52%. Regarding `COc1ccc(-c2csc(Nc3cccnc3)n2)cc1`, the “hERG current change (%, negative = inhibition) at 10uM” value is listed as 24%.

Take `O=C(O)C1CCN(C(=O)c2ccc3c(c2)OCO3)CC1`: the “hERG current change (%, negative = inhibition) at 10uM” value was determined as 14%. For `CN(CC(=O)Nc1cccc(F)c1)C(=O)c1cc2c(s1)CCCCC2` the value was 11.7%; for `O=C(CN1C(=O)CCC1=O)Nc1cccc2c1C(=O)NC2=O`, 5.07%; for `COc1cc2nc(NC(=O)c3ccc(Cl)cc3)sc(=O)c2cc1OC`, 12.8%.

As for `COc1ccc(CNC(=O)[C@@H]2CC=C[C@@H]3CCN(C4CC4)C(=O)[C@@H]32)cc1`, the “hERG current change (%, negative = inhibition) at 10uM” value came out at 0.828%. On to `N=c1c(C(=O)NCc2ccc3c(c2)OCO3)cc2c(=O)n3ccccc3nc2n1Cc1cccnc1`, for which the “hERG current change (%, negative = inhibition) at 10uM” value is -80.4%.

Regarding `O=C(O)c1cccc(Cl)n1`, the “hERG current change (%, negative = inhibition) at 10uM” value is given as 0.759%. For `COc1ccc(-c2csc(NC(=S)NC(=O)c3cccs3)n2)cc1Br`, the “hERG current change (%, negative = inhibition) at 10uM” value stood at 3.71%. For the molecule `CCC(C)C1C(C#N)=C(N)Oc2n[nH]c(C)c21` (stereo not shown), the “hERG current change (%, negative = inhibition) at 10uM” value is on record as -0.113%. Turning to `COC(=O)c1c(NC(=O)c2c(OC)cccc2OC)sc2c1C(C(=O)OC)CC2` (stereo not shown), the “hERG current change (%, negative = inhibition) at 10uM” value was 1.5%. In the case of `O=C(Cn1nc(C(=O)O)c2ccccc2c1=O)NCC1CCCO1` (stereo not shown), the “hERG current change (%, negative = inhibition) at 10uM” value came to 20%. Under `Cc1cccn2c(CNCC(C)Oc3cccnc3)c(C(=O)N3CCOCC3)nc12` (stereo not shown) stands -7.13%; under `COc1cccc(OCc2cc(C(=O)N3CCCC3c3ccccn3)no2)c1` (stereo not shown), 5.99%. For `O=C1COc2ccc(C(=O)COC(=O)Cc3ccsc3)cc2N1` the value was -37.5%; for `CSCCC(NS(=O)(=O)c1cccs1)C(=O)NCc1cccs1` (stereo not shown), -2.1%. Under `CCn1ccnc1CN(C)Cc1c(C(=O)N2CCCCCCC2)nc2ccc(Cl)cn12` stands -37.1%. As to `Cc1noc(C)c1CSc1ccccc1C(=O)OC(C)C(N)=O` (stereo not shown), the “hERG current change (%, negative = inhibition) at 10uM” value amounted to 19.2%.
